# Results published in the supplement of paper PMC8728848.
# Some of the results follow.
# Columns and labels:
# Assay in all cases: glycan array binding signal (z-score within array); higher = stronger binding
# Settings in all cases: glycan notation: IUPAC condensed, linker removed
# [1] = target: Neu5Ac(a2-6)Gal(b1-4)GlcNAc(b1-2)Man(a1-3)[Neu5Ac(a2-3)Gal(b1-4)GlcNAc(b1-2)Man(a1-6)]Man(b1-4)GlcNAc(b1-4)GlcNAc
# Procedure, shortened: (§1)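 Columns mapping to the same glycan were averaged after glycan names were converted to IUPAC-condensed notation. The data come from 3228 arrays in the Consortium for Functional Glycomics database, limited to those with an available protein sequence. Binding is reported as a within-array Z-score averaged across arrays of one protein sequence and across linkers.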
# [2] = target: Neu5Ac(a2-6)Gal(b1-4)GlcNAc(b1-2)Man(a1-3)[Neu5Ac(a2-6)Gal(b1-4)GlcNAc(b1-2)Man(a1-6)]Man(b1-4)GlcNAc(b1-4)GlcNAc
# Procedure, shortened: as §1
# [3] = target: Neu5Ac(a2-6)Gal(b1-4)GlcNAc(b1-2)Man(a1-3)[Neu5Ac(a2-6)Gal(b1-4)GlcNAc(b1-2)Man(a1-6)]Man(b1-4)GlcNAc(b1-4)[Fuc(a1-6)]GlcNAc
# Procedure, shortened: as §1
# [4] = target: Neu5Ac(a2-6)Gal(b1-4)GlcNAc(b1-2)Man(a1-6)Man(b1-4)GlcNAc(b1-4)GlcNAc
# Procedure, shortened: as §1
# [5] = target: Neu5Ac(a2-6)Gal(b1-4)GlcNAc(b1-2)Man(a1-6)[Gal(b1-4)GlcNAc(b1-2)Man(a1-3)]Man(b1-4)GlcNAc(b1-4)GlcNAc
# Procedure, shortened: as §1
# [6] = target: Neu5Ac(a2-6)Gal(b1-4)GlcNAc(b1-2)Man(a1-6)[GlcNAc(b1-2)Man(a1-3)]Man(b1-4)GlcNAc(b1-4)GlcNAc
# Procedure, shortened: as §1
# [7] = target: Neu5Ac(a2-6)Gal(b1-4)GlcNAc(b1-2)Man(a1-6)[Man(a1-3)]Man(b1-4)GlcNAc(b1-4)GlcNAc
# Procedure, shortened: as §1
# [8] = target: Neu5Ac(a2-6)Gal(b1-4)GlcNAc(b1-2)[Neu5Ac(a2-6)Gal(b1-4)GlcNAc(b1-4)]Man(a1-3)[GlcNAc(b1-4)][Neu5Ac(a2-6)Gal(b1-4)GlcNAc(b1-2)[Neu5Ac(a2-6)Gal(b1-4)GlcNAc(b1-6)]Man(a1-6)]Man(b1-4)GlcNAc(b1-4)GlcNAc
# Procedure, shortened: as §1
# [9] = target: Neu5Ac(a2-6)Gal(b1-4)GlcNAc(b1-2)[Neu5Ac(a2-6)Gal(b1-4)GlcNAc(b1-4)]Man(a1-3)[GlcNAc(b1-4)][Neu5Ac(a2-6)Gal(b1-4)GlcNAc(b1-4)Man(a1-6)]Man(b1-4)GlcNAc(b1-4)GlcNAc
# Procedure, shortened: as §1
# [10] = target: Neu5Ac(a2-6)Gal(b1-4)GlcNAc(b1-2)[Neu5Ac(a2-6)Gal(b1-4)GlcNAc(b1-6)]Man(a1-6)[Neu5Ac(a2-6)Gal(b1-4)GlcNAc(b1-2)Man(a1-3)][GlcNAc(b1-4)]Man(b1-4)GlcNAc(b1-4)GlcNAc
# Procedure, shortened: as §1
# [11] = target: Neu5Ac(a2-6)Gal(b1-4)GlcNAc(b1-3)Gal(b1-3)GlcNAc
# Procedure, shortened: as §1
# [12] = target: Neu5Ac(a2-6)Gal(b1-4)GlcNAc(b1-3)Gal(b1-4)GlcNAc
# Procedure, shortened: as §1
# [13] = target: Neu5Ac(a2-6)Gal(b1-4)GlcNAc(b1-3)Gal(b1-4)GlcNAc(b1-2)Man(a1-3)[Neu5Ac(a2-6)Gal(b1-4)GlcNAc(b1-3)Gal(b1-4)GlcNAc(b1-2)Man(a1-6)]GalNAc
# Procedure, shortened: as §1
# [14] = target: Neu5Ac(a2-6)Gal(b1-4)GlcNAc(b1-3)Gal(b1-4)GlcNAc(b1-3)Gal(b1-4)GlcNAc
# Procedure, shortened: as §1
# [15] = target: Neu5Ac(a2-6)Gal(b1-4)GlcNAc(b1-3)Gal(b1-4)GlcNAc(b1-3)Gal(b1-4)GlcNAc(b1-2)Man(a1-3)[Neu5Ac(a2-6)Gal(b1-4)GlcNAc(b1-3)Gal(b1-4)GlcNAc(b1-3)Gal(b1-4)GlcNAc(b1-2)Man(a1-6)]GalNAc
# Procedure, shortened: as §1
# [16] = target: Neu5Ac(a2-6)Gal(b1-4)GlcNAc(b1-3)Gal(b1-4)GlcNAc(b1-3)GalNAc
# Procedure, shortened: as §1
# [17] = target: Neu5Ac(a2-6)Gal(b1-4)GlcNAc(b1-3)Gal(b1-4)GlcNAc(b1-3)[Neu5Ac(a2-6)Gal(b1-4)GlcNAc(b1-3)Gal(b1-4)GlcNAc(b1-6)]GalNAc
# Procedure, shortened: as §1
# [18] = target: Neu5Ac(a2-6)Gal(b1-4)GlcNAc(b1-3)Gal(b1-4)GlcNAc(b1-6)[Gal(b1-3)]GalNAc
# Procedure, shortened: as §1
# [19] = target: Neu5Ac(a2-6)Gal(b1-4)GlcNAc(b1-3)Gal(b1-4)[Fuc(a1-3)]GlcNAc(b1-3)Gal(b1-4)[Fuc(a1-3)]GlcNAc
# Procedure, shortened: as §1
# [20] = target: Neu5Ac(a2-6)Gal(b1-4)GlcNAc(b1-3)GalNAc
# Procedure, shortened: as §1
# [21] = target: Neu5Ac(a2-6)Gal(b1-4)GlcNAc(b1-3)[Neu5Ac(a2-6)Gal(b1-4)GlcNAc(b1-6)]GalNAc
# Procedure, shortened: as §1
# [22] = target: Neu5Ac(a2-6)Gal(b1-4)GlcNAc(b1-6)GalNAc
# Procedure, shortened: as §1
# [23] = target: Neu5Ac(a2-6)Gal(b1-4)GlcNAc(b1-6)[Gal(b1-3)GlcNAc(b1-3)]Gal(b1-4)Glc
# Procedure, shortened: as §1
# [24] = target: Neu5Ac(a2-6)Gal(b1-4)GlcNAc(b1-6)[Gal(b1-3)]GalNAc
# Procedure, shortened: as §1
# [25] = target: Neu5Ac(a2-6)Gal(b1-4)GlcNAc6S
# Procedure, shortened: as §1
# Neu5Ac(a2-6)GalNAc = target: Neu5Ac(a2-6)GalNAc
# Procedure, shortened: as §1
# [26] = target: Neu5Ac(a2-6)GalNAc(b1-4)GlcNAc
# Procedure, shortened: as §1
# [27] = target: Neu5Ac(a2-6)GalNAc(b1-4)GlcNAc6S
# Procedure, shortened: as §1
# [28] = target: Neu5Ac(a2-6)GlcNAc(b1-4)GlcNAc
# Procedure, shortened: as §1
# [29] = target: Neu5Ac(a2-6)GlcNAc(b1-4)GlcNAc(b1-4)GlcNAc
# Procedure, shortened: as §1
binder,measurement,setting,value
GS7807E-bfa-538-23-538 (Bacteroides fragilis) (protein) TDSFESFNTNEAGFDNDSKKQDFNYYGIPLGIIQQGIYFNYDWGSGKNWPFQTMQNLGADLFSGYVHDFNPFNEGKNNSTYYMMDGWNGSTWDNTYGYIMPEVQKSETINEKDNIGFFGITKILKVELMHRLSDLYGPIVYTQFGSKTGSTPDTQQEAYKAFFNDLDTGIAKIREYQKANPDIESFAKFDILMPQGKRTFSEWIRFANSLRLRLAVRIAMADSKLAVAEAQKALTDEEGLLEGNDEVVAVSTSSGYTNPFGEINKAWGEVFMNANMESLLVGYEDPRMEKYFDKATGSDATSLIDYKGTYKGIRQGTGFSHKNYNGHSKSTITQQTDAVLMTPAEVWFLRAEAALRGWSSESVKDCYEKGVKASFAQWGAAGAEAYLESDRKPSDYVDAFKAANNVKAVNTLTPKWDDAAGNEDKLGRIITQKWLAMFPEGGEAWAEQRRTGYPRLFPVLVNQSEGTVDTNLGPRRLNFFVGIKTTNPEQYTQLVNALGGIDNCGTRLWWDTGRNF,glycan array binding signal (z-score),[1],-0.678
same,glycan array binding signal (z-score),[2],0.478
same,glycan array binding signal (z-score),[3],2.32
same,glycan array binding signal (z-score),[4],-0.26
same,glycan array binding signal (z-score),[5],3.21
same,glycan array binding signal (z-score),[6],-0.644
same,glycan array binding signal (z-score),[7],0.194
same,glycan array binding signal (z-score),[8],-0.635
same,glycan array binding signal (z-score),[9],-0.24
same,glycan array binding signal (z-score),[10],0.164
same,glycan array binding signal (z-score),[11],-0.187
same,glycan array binding signal (z-score),[12],-0.639
same,glycan array binding signal (z-score),[13],1.08
same,glycan array binding signal (z-score),[14],-0.589
same,glycan array binding signal (z-score),[15],0.933
same,glycan array binding signal (z-score),[16],-0.607
same,glycan array binding signal (z-score),[17],-0.258
same,glycan array binding signal (z-score),[18],1.89
same,glycan array binding signal (z-score),[19],-0.173
same,glycan array binding signal (z-score),[20],0.58
same,glycan array binding signal (z-score),[21],1.13
same,glycan array binding signal (z-score),[22],-0.512
same,glycan array binding signal (z-score),[23],1.71
same,glycan array binding signal (z-score),[24],-0.059
same,glycan array binding signal (z-score),[25],-0.682
same,glycan array binding signal (z-score),Neu5Ac(a2-6)GalNAc,-0.635
same,glycan array binding signal (z-score),[26],-0.685
same,glycan array binding signal (z-score),[27],0.616
same,glycan array binding signal (z-score),[28],-0.672
same,glycan array binding signal (z-score),[29],-0.677
